# Measurements from PubChem BioAssay (NCATS).
# The inconclusive results got no clear call from the source; some entries with a clear call stand among them for comparison. For some assays here: No potency is given beside an inconclusive call; the fits are too rough. Activity calls are given as the source filed them. Unless noted, calls follow the shape of the dose curve; as a rule, active = well fitted curve in the direction sought with a large enough effect; inconclusive = small, poorly fitted or top-dose-only effect, or another doubt; inactive = no such curve, though single readings can be large; an effect the other way counts as inactive or inconclusive.
# What was measured:
# [1] = molecular target: Peroxisome proliferator-activated receptor gamma (Homo sapiens) (UniProt P37231); experiment: qHTS assay for small molecule agonists of peroxisome proliferator-activated receptor gamma signaling (AID 588536; active = well fitted curve in the direction sought with a large enough effect in the signal ratio, with a control signal flat, not every such curve was filed as active; inconclusive = small, poorly fitted or top-dose-only effect, or effect the other way, or a change in a side signal; inactive = no such curve, though single readings can be large or run the other way; the % refers to the signal ratio;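 also: 0% = DMSO basal wells and 100% = rosiglitazone at 2 µM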); settings: HEK293 PPARg-UAS-bla, beta-lactamase ratio, 16 h; activation: at 76.7 µM (top of the series), percent of rosiglitazone response, DMSO as zero
# Sequence of UniProt P37231 (P37231 whole entry, looked up): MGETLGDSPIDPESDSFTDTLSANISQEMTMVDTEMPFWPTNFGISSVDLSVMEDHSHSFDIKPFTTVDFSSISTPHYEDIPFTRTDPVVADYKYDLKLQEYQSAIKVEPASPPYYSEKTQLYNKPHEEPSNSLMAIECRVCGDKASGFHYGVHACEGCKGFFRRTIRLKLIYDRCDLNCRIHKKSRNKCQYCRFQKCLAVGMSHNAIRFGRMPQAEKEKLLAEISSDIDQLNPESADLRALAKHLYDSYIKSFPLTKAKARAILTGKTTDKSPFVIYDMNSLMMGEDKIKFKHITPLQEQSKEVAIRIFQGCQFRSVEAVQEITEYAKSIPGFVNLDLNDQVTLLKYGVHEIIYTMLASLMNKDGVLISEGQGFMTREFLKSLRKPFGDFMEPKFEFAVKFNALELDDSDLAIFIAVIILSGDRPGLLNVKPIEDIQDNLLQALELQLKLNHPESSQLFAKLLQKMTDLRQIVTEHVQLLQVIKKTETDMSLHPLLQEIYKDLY
# Outline: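 PPAR-gamma-UAS-bla HEK293 cells in medium with 1% charcoal/dextran-treated FBS were exposed to compounds for 16 h at 37 C. Beta-lactamase activity was read with CCF4 substrate (405 nm excitation, 460/530 nm emission).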
# [2] = molecular target: Retinoic acid receptor RXR-alpha (Homo sapiens) (UniProt P19793); experiment: qHTS assay for small molecule agonists of retinoid X receptor alpha signaling (AID 588544; calls by dose curve;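 also: 0% = DMSO basal wells and 100% = reference agonist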); settings: HEK293T RXRa-UAS-bla, beta-lactamase reporter, 18 h; activation: at 76.7 µM (top of the series)
# Sequence of UniProt P19793 (P19793 whole entry, looked up): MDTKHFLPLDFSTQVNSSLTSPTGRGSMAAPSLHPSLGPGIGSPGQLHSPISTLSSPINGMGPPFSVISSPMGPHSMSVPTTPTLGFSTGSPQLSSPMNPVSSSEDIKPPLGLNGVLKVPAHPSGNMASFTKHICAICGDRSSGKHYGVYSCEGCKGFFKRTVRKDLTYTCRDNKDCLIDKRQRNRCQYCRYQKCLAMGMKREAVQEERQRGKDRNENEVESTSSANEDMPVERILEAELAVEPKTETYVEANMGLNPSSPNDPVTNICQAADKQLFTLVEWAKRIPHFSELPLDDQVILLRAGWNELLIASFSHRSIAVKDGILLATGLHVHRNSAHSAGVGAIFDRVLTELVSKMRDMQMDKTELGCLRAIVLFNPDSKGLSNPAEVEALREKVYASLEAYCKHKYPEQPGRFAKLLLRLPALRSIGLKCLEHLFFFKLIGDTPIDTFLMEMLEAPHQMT
# [3] = system: Zika virus NS2B-NS3 protease (unlinked complex); experiment: Primary screen GU Rhodamine qHTS for Zika virus inhibitors: Unlinked NS2B-NS3 protease assay (AID 1347159); also: % is scaled to controls: 0 for no effect and ±100 for the full control effect; nearly all actives have a fitted effect of over 60% in size
# Outline: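 Noncovalent NS2B hydrophilic domain–NS3 protease domain complex (25 nM) preincubated 15 min at room temperature with compounds (up to 114 microM) in 10 mM Tris-HCl pH 8.0, 0.01% Tween 20; 1.5 microM Rhodamine110 substrate added, fluorescence change over 15 min fitted to Hill equation.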
# [4] = U-118MG Cancer Cell Toxicity qHTS against the NCATS CANVASS Library (AID 1347351); also: % is scaled to controls: 0 for no effect and ±100 for the full control effect
# Outline: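 Quantitative HTS format: an 11-concentration series was applied to 1000 cells/well following a 4-hour attachment. Cultures ran 72 hours before ATP luminescence detection by CellTiter-Glo.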
# [5] = qHTS for inhibitors of ER calcium dysfunction: SERCaMP assay screened against the NCATS CANVASS Library (AID 1347393); settings: SH-SY5Y GLuc-SERCaMP secretion, thapsigargin, luminescence; activity change, negative = inhibition: at 76.6 µM (top of the series); also: potency is read from the fitted curve at half-maximal effect; nearly all actives have a fitted effect of over 40% in size
# Outline: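 Thapsigargin-induced ER calcium depletion drives GLuc-SERCaMP secretion from SH-SY5Y cells; compounds given 16 h beforehand were scored by lowered coelenterazine luminescence after 4 h challenge.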
# [6] = Redox Reaction Profiling qHTS: Assay Interference Panel against the NCATS CANVASS Library (AID 1347401); also: potency is read from the fitted curve at half-maximal effect
# Outline: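 Cell-free redox surrogate: 5 uM resazurin + 200 uM DTT, 50 mM HEPES pH 7.3/50 mM NaCl; cpds pinned, 11-pt qHTS; Ex525/Em598 read t0 and t=15 min, dark.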
# [7] = Primary qHTS for inhibitors of SARS-S pseudo-typed particle cell entry (AID 1479145; calls by dose curve; also: potency is read from the fitted curve at half-maximal effect; nearly all actives have a fitted effect of over 45% in size); settings: outcome: dose series up to 57.1 µM unless noted
# [8] = Primary qHTS for inhibitors of MERS-S pseudo-typed particle cell entry (AID 1479149; calls by dose curve; also: % is scaled to controls: 0 for no effect and ±100 for the full control effect; nearly all actives have a fitted effect of over 60% in size); settings: outcome: dose series up to 57.1 µM unless noted
# [9] = Primary qHTS to identify inhibitors of SARS-CoV-2 cell entry (AID 1645846; calls by dose curve; also: potency is read from the fitted curve at half-maximal effect; nearly all actives have a fitted effect of over 45% in size); settings: activity change, negative = inhibition: at 57.1 µM (top of the series)
# Outline: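 Entry measured by luciferase signal 48 h after adding SARS-CoV-2-S pseudotyped MLV particles to HEK293-ACE2 cells preincubated 1 h with compounds. Normalisation: bald particles and spike particles.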
# [10] = molecular target: Phospholipid hydroperoxide glutathione peroxidase GPX4 (Homo sapiens) (UniProt P36969); experiment: Primary qHTS Assay for Inhibitors of Recombinant Selenoprotein Glutathione Peroxidase 4 (GPX4) (AID 1845192); settings: activity change, negative = inhibition: at 50 µM (top of the series); also: nearly all actives have a fitted effect of over 65% in size; as to activity change, negative = inhibition: % is scaled to controls: 0 for no effect and ±100 for the full control effect
# Sequence of UniProt P36969 (P36969 whole entry, looked up): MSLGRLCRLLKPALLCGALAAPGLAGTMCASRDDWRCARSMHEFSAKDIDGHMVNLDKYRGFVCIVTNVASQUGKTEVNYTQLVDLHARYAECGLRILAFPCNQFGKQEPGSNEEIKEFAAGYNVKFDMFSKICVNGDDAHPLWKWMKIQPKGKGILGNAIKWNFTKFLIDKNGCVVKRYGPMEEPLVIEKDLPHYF
# Outline: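 NADPH consumption, followed by fluorescence at 340/450 nm between 0 and 15 min, reports GPX4 activity via coupled glutathione reductase (100 nM). Enzyme 200 nM was pre-exposed to compound 30 min; 0.5 mM cumene hydroperoxide and 1 mM GSH served as substrates.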
# [11] = system: Zika virus NS2B-NS3 protease; experiment: Primary screen GU AMC qHTS for Zika virus inhibitors (AID 1347154); also: nearly all actives have a fitted effect of over 70% in size; also: potency is read from the fitted curve at half-maximal effect;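 as to activity change, negative = inhibition: 0% = no-inhibitor control and -100% = no-enzyme control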
# Outline: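 Fluorogenic AMC-substrate cleavage by noncovalent NS2B-NS3 protease complex (25 nM, pH 8.0 Tris buffer with Tween 20) followed for 15 minutes at room temperature (~20% conversion). Percent inhibition from ex340/em450 signal change, fitted by 4-parameter Hill equation.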
# [12] = Counterscreen qHTS for small molecule stabilizers of the endoplasmic reticulum resident proteome: GLuc-NoTag assay (AID 1508627);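 also: SH-SY5Y cells given compound then 100 nM thapsigargin to empty ER calcium; 0% = thapsigargin alone and -100% = DMSO vehicle control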
# Outline: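 Luminescence of Gaussia luciferase secreted into the medium (coelenterazine, 0.07x final, unlysed cells) was the read-out. Human SH-SY5Y neuroblastoma cells constitutively secreting untagged GLuc received compound for 19 h, then 100 nM thapsigargin for 4 h.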
# [13] = Cell Viability qHTS for small molecule stabilizers of the endoplasmic reticulum resident proteome (AID 1508629); settings: cell viability counter-screen, 100 nM thapsigargin for final 4 h;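 also: potency is read from the fitted curve at half-maximal effect; compound exposure about 46 h in total before the viability read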
# [14] = Primary qHTS for small molecule stabilizers of the endoplasmic reticulum resident proteome: Secreted ER Calcium Modulated Protein (SERCaMP) assay (AID 1508630); settings: SH-SY5Y GLuc-SERCaMP (Gaussia luciferase released on ER calcium loss) secretion, thapsigargin, luminescence; activity change, negative = inhibition: at 38.4 µM (top of the series); also: potency is read from the fitted curve at half-maximal effect; as to activity change, negative = inhibition: % is scaled to controls: 0 for no effect and ±100 for the full control effect
# Outline: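 GLuc-SERCaMP-expressing SH-SY5Y cells, pretreated 16 h with compound, are challenged with thapsigargin to empty ER calcium stores; after 4 h, coelenterazine is added directly to the medium and luminescence is imaged.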
# [15] = qHTS Assay for Lipid Storage Modulators (AID 1519; calls by dose curve; also: % is scaled to controls: 0 for no effect and ±100 for the full control effect); settings: Drosophila S3 cells, BODIPY lipid droplet/cell ratio, laser cytometry, cells loaded with oleic acid; activity change, negative = inhibition: at 57.5 µM (top of the series) unless noted
# Outline: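 Cells seeded at 5,000 per well were treated with compounds over a concentration series and loaded with oleic acid (400 uM, as added). Lipid droplet fluorescence (488 nm excitation, 500-530 nm channel) was read by laser-scanning cytometry and normalized to 20 uM Triacsin C.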
# Tags tell the direction and shape of the fitted curve.
compound,measurement,setting,value
O=C1C[C@@H]2OCC=C3CN4CC[C@]56c7ccccc7N1[C@H]5[C@H]2[C@H]3C[C@H]46,Potency,[1],inactive
same,activation,[2],inconclusive: -15%
same,Potency,[3],inactive
same,Potency,[4],inactive
same,Potency,[5],active: 59.6 µM
same,Potency,[6],"inconclusive [activator, full curve, poor fit]"
same,Potency,[7],"inconclusive [inhibitor, single point]"
same,Potency,[8],inactive
same,Potency,[9],"inconclusive [inhibitor, partial curve]"
same,Potency,[10],inactive
CC(C)C1C(=O)N2CCC[C@H]2[C@]2(O)O[C@](NC(=O)[C@@H]3C=C4c5cccc6[nH]cc(c56)C[C@H]4N(C)C3)(C(C)C)C(=O)N12 (some centres not stated),Potency,[11],"inconclusive [inhibitor, single point]"
same,Potency,[12],inactive
same,Potency,[13],"inconclusive [rising, full curve]"
same,Potency,[14],"inconclusive [inhibitor, partial curve, poor fit]"
Cc1o[nH]c(=O)c1C[C@@H](N)C(=O)O,Potency,[15],inactive
same,Potency,[11],inactive
same,Potency,[14],inactive
